The experiment addresses BG505 DS-SOSIP.664 Env trimer (HIV-1). Description: ITC, 37 C, PBS pH 7.4, antibody titrated into trimer. (In general: Isothermal titration calorimetry measures the heat released or taken up as one component is titrated into another.)

B1: CAP256.J3LS (bispecific antibody)
heavy: QVQLVESGGGVVQPGTSLRLSCAASQFRFDGYGMHWVRQAPGKGLEWVASISHDGIKKYHAEKVWGRFTISRDNSKNTLYLQMNSLRPEDTALYYCAKDLREDECEEWWSDYYDFGAQLPCAKSRGGLVGIADNWGQGTMVTVSS[human IgG1 constant region with changes left out]
light: EVQLVESGGGLVQAGGFLELSCELRGSIFNQYAMAWFRQAPGKEREFVAGMGAVPHYGEFVKGRFTISRDNAKSTVYLQMSSLEPEDTAIYFCARSKSTYISYNSNGYDYWGQGTQVTVSSGGSGGGGSGGGGSGGQSVLTQPPSVSAAPGQKVTISCSGNTSNIGNNFVSWYQQRPGRAPQLLIYETDKRPSGIPDRFSASKSGTSGTLAITGLQTGDEADYYCATWAASLSSARVFGTGTQVIVLGQPKVNPTVTLFPPSSEELQANKATLVCLISDFYPGAVTVAWKADSSPVKAGVETTTPSKQSNNKYAASSYLSLTPEQWKSHRSYSCQVTHEGSTVEKTVAPTECS
On to B1, for which the -TΔS is 41.2 kcal/mol; the Kd – broadly, the constant that tells how readily two partners part at equilibrium – was determined as 10 nM; the N (stoichiometry) (Half-IgG per Trimer) came out at 1; the ΔG was -11.3 kcal/mol. The molecule further yielded a ΔH of -52.5 kcal/mol.
